Here are results for seven molecules from patent US20190345207A1 (Pieris, published 2019).

For assay [1], the target named is T1, huLAG-3-Fc (human LAG-3 extracellular domain fused to human IgG1 Fc fragment, R&D systems) (human, UniProt P18627 23-450).
T1 construct: extracellular domain; Bought from R&D Systems; also called human LAG-3-Fc fusion; not shown: human IgG1 Fc fragment
T1 sequence (looked up): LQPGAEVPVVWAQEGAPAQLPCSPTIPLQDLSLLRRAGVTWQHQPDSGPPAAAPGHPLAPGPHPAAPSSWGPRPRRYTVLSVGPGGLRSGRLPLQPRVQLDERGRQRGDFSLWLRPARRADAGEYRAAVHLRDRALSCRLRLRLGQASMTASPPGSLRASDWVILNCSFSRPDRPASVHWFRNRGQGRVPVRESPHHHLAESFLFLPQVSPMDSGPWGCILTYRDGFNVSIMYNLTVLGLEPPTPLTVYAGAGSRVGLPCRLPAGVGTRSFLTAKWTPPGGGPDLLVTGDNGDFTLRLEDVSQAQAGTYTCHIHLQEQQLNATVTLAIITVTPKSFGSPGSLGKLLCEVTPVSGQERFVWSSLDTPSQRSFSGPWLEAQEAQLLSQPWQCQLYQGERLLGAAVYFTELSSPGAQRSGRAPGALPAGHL
Kind of assay: competition FACS, 3 nM huLAG-3-Fc vs MHC class II on A375 cells.

For assay [2], the target named is T2, human LAG-3 on CHO cells stably transfected with huLAG-3 (CHO-huLAG-3) (human, UniProt P18627 23-525).
T2 construct: whole, on cells; also called CHO::human LAG-3
T2 sequence (looked up): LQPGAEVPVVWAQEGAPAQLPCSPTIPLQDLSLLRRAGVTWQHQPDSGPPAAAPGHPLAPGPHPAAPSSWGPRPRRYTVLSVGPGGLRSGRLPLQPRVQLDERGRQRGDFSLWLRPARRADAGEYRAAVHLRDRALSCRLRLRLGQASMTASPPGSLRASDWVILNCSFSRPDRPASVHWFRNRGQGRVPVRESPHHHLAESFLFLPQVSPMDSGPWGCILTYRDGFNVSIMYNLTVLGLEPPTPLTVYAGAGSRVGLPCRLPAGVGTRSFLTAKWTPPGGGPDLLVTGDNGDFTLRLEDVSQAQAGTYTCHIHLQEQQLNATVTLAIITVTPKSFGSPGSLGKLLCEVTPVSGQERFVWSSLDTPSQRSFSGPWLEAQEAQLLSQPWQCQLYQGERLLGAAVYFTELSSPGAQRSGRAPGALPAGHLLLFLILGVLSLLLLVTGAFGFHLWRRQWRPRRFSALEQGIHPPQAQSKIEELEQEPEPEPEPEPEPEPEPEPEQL
In words: FACS on transfected CHO cells.

In assay [3] the target is T3, cynomolgus LAG-3 on CHO cells stably transfected with cyLAG-3 (CHO-cyLAG-3) (cynomolgus monkey).
T3 construct: whole, on cells; also called CHO::cynomolgus LAG-3
Kind of assay: FACS on transfected CHO cells.

Assay [4] deals with T1, huLAG-3-Fc (human LAG-3 extracellular …). In words: SPR, Fc-captured target, mutein analyte. The protocol: The anti-human IgG Fc antibody (GE Healthcare) was immobilized on a CM5 sensor chip using standard amine chemistry: the carboxyl groups on the chip were activated using 1-ethyl-3-(3-dimethylaminopropyl)-carbodiimide (EDC) and N-hydroxysuccinimide (NHS). […] Residual non-reacted NHS-esters were blocked by passing a solution of 1M ethanolamine across the surface. The reference channel was treated in an analogous manner.
All measurements were performed at 25° C. […] Prior to the protein measurements, three startup cycles were performed for conditioning purposes. […] Double referencing was used and the 1:1 binding model was used to fit the raw data.
A general note: In SPR one partner is held on a chip, and binding of the other changes the refractive index at the surface.

B1: lipocalin mutein SEQ ID NO: 26 (designed binder)
chain: ASDEEIQDVPGTWYLKAMTVSREDPEMTLESVTPMTLTTLEGGNLEARVTVLIDGRCQEVKNVLEKTDEPGKYTEDGGKHVDYIIRSHVKDHYIFYFEGEGQGTPNRMAALVGRDPTNNLEALEDFEKAAGARGLSTESILIPRQSETCSPGSAWSHPQFEK
notes: also called optimized LAG-3 specific lipocalin mutein
A word on the IC50: it is the concentration at which inhibition is half-maximal. Read a low IC50 as greater potency in that assay. What is called EC50 is the concentration that produces a half-maximal response. As a reminder, the Kd is the equilibrium constant for the complex coming apart. Read a high Kd as weaker binding. The koff is the rate constant with which the complex falls apart. As a reminder, the kon is the second-order rate constant of association. Molecule B1 displayed an IC50 in assay [1] of 0.54 nM. Besides, the EC50 in assay [2] stood at 2.23 nM. In assay [3], the EC50 turned out to be 45 nM. In assay [4], this molecule returned a Kd of 1.37 nM, a koff of 0.000138 s⁻¹ and a kon of 101000 M⁻¹ s⁻¹.

B2: lipocalin mutein SEQ ID NO: 27 (designed binder)
chain: ASDEEIQDVPGTWYLKAMTVSGEDPELTLESVTPMTLTTLEGGNLEARVTVLIDGRCQEVKNVLEKTDEPGKYTEDGGKYVDYIIRSHVKDHYIFYFEGEGPGTPGRMVALVGRDPTNNLEALEDFEKAAGARGLSTESILIPRQSETCSPGSAWSHPQFEK
notes: as for B1
B2: the IC50 in assay [1] was determined as 0.39 nM. Also, it took 2.15 nM to reach a half-maximal effect in assay [2] (EC50). For the same molecule, the EC50 in assay [3] is 31.4 nM. Also, in assay [4], binding was characterised by a dissociation constant (Kd) of 1.44 nM, the koff was found to be 0.000174 s⁻¹ and the kon came out at 121000 M⁻¹ s⁻¹.

B3: lipocalin mutein SEQ ID NO: 28 (designed binder)
chain: ASDEEIQDVPGTWYLKAMTVSDEDPEMTLESVTPMTLTTLEGGNLEARVTVLIDGRCQEVKNVLEKTDEPGKYTEDGGKLVDYIIRSHVKDHYIFYFEGEGQGTPGRMLALVGRDPTNNLEALEDFEKAAGARGLSTESILIPRQSETCSPGSAWSHPQFEK
notes: as for B1
For B3, the IC50 in assay [1] came to 0.55 nM. Also, in assay [2], the EC50 came out at 2.19 nM. Moreover, in assay [3], the EC50 was 21 nM. In assay [4], this molecule showed a Kd of 0.883 nM, a koff of 0.000409 s⁻¹ and a kon of 463000 M⁻¹ s⁻¹.

B4: lipocalin mutein SEQ ID NO: 92 (designed binder)
chain: ASDEEIQDVSGTWYLKAMTVDSDCFWIDDVSVTPMTLTTLEGGNLEAKVTMDIFGFWQEVEAVLERTDEPGKYTADGGKHVAYIIRSHVKDHYIFYSEGECAGYPVPGVWLVGRDPKNNLEALEDFEKAAGARGLSTESILIPRQSETSSPGSAWSHPQFEK
notes: as for B1
For B4, the IC50 in assay [1] is 0.23 nM. This molecule also registered an EC50 in assay [2] of 0.76 nM. This molecule gave an EC50 in assay [3] of 111 nM. In assay [4], this molecule registered a Kd of 0.146 nM, a koff of 0.000809 s⁻¹ and a kon of 5.54e+06 M⁻¹ s⁻¹.

B5: lipocalin mutein SEQ ID NO: 86 (designed binder)
chain: TSDEEIQDVSGTWYLKAMTVDSDCFWIDDVSVTPMTLTTLEDGNLEAKVTMDIFGFWQEVEAVLEKTDEPGKYTADGGKHAAYIIRSHVKDHYIFYSEGECAGYPVPGVWLVGRDPKNNLEALEDFEKAAGARGLSTESILIPRQGETSSPGSAWSHPQFEK
notes: as for B1
In assay [1], B5 registered a concentration for half-maximal inhibition (IC50) of 0.78 nM. Also, the EC50 in assay [2] turned out to be 1.52 nM. In assay [3], this molecule gave an EC50 of 21.2 nM. Moreover, in assay [4], the Kd came to 0.077 nM, the koff worked out at 0.00037 s⁻¹ and the kon is 4.78e+06 M⁻¹ s⁻¹.

B6: lipocalin mutein SEQ ID NO: 85 (designed binder)
chain: TSDQEIQDVSGTWYLKAMTVDSDCFWIDDVSVTPMTLTTLEGGNLEAKVTMDIFGFWQEVEAVLGKTDEPGKYTADGGKHAAYIIRSHVKDHYIFYSEGECAGYPVPGVWLVGRDPKNNLEALEDFEKAAGARGLSTESILIPRQSETSAPGSAWSHPQFEK
notes: as for B1
In assay [1], B6 gave an IC50 of 0.38 nM. The response in assay [2] was half-maximal at 0.22 nM (EC50). Besides, the EC50 in assay [3] was 9.8 nM. In assay [4], this molecule yielded a Kd of 0.053 nM, a koff of 0.00028 s⁻¹ and a kon of 5.3e+06 M⁻¹ s⁻¹.

B7: lipocalin mutein SEQ ID NO: 87 (designed binder)
chain: ASGEEIQDVSGTWYLKAMTVDSDCFWIDDVSVTPMTLTTLEGGNLEAKVTMDIFGFWQEVKAVLEKTDEPGKYTADGGKHDAYIIRSHVKDHYIFYSEGECAGYPVPGVWLVGRDPKNNLEALEDFEKAAGARGLSTESILIPWQSEPSSPGSAWSHPQFEK
notes: as for B1
In assay [1], B7 showed an IC50 of 0.32 nM. Also, the EC50 in assay [2] was 0.95 nM. The molecule also registered an EC50 in assay [3] of 21.1 nM. In assay [4], this molecule had a Kd of 0.087 nM, a koff of 0.000508 s⁻¹ and a kon of 5.85e+06 M⁻¹ s⁻¹.
